According to the antibiotic and cytotoxicity screens of Wong et al. (2023):
Some of the results follow.

Experiments:
HSkMC = human skeletal muscle cells; assay: cytotoxicity call (relative viability < 0.9); settings: 10 µM
HepG2 = assay: cytotoxicity call (relative viability < 0.9); settings: 10 µM
S. aureus RN4220 = assay: growth inhibition call (relative growth <= 0.2); settings: 50 µM

| Structure (SMILES) | cytotoxicity call (HSkMC) | cytotoxicity call (HepG2) | growth inhibition call (S. aureus RN4220) |
| --- | --- | --- | --- |
| C=CCOC(=O)[C@H]1[C@@H]2C(=O)O[C@@H](c3ccccc3)[C@@H](c3ccccc3)N2[C@@H](c2ccc(OCCOC(=O)[C@@H]3C[C@@H]4C(=O)N[C@@H](Cc5ccccc5)C(=O)N4[C@@H]3c3ccc(O)cc3)cc2)[C@]12C(=O)Nc1ccccc12 | inactive | inactive | inactive |
| C[C@@H]1CN([C@H](C)CO)C(=O)c2cccc(NC(=O)c3cnccn3)c2O[C@@H]1CN(C)S(=O)(=O)c1ccc(F)cc1 | inactive | inactive | inactive |
| CC(C)(C)[C@H]1COC(=O)[C@@H](NC(=O)OCC2c3ccccc3-c3ccccc32)CC=CC[C@@H](CC(=O)N[C@H](CO)Cc2ccccc2)C(=O)N1 | inactive | inactive | inactive |
| CO[C@@H]1CN(C)C(=O)c2ccc(NS(=O)(=O)CC(F)(F)F)cc2OC[C@@H](C)N(C(=O)NC(C)C)C[C@@H]1C | inactive | inactive | inactive |
| O=C(O)CCc1nnc2ccc(Cl)nn12 | inactive | inactive | inactive |
| O=C(C[C@@H]1CC[C@@H]2[C@H](COC[C@@H](O)CN2C(=O)c2cnccn2)O1)N1CCN(c2ccccc2)CC1 | inactive | inactive | inactive |
| Cc1noc(C)c1S(=O)(=O)Nc1ccc2c(c1)C(=O)N([C@H](C)CO)C[C@@H](C)[C@H](CN(C)C(=O)NC1CCCCC1)O2 | inactive | inactive | inactive |
| CC/C=C\C/C=C\C/C=C\CCCCCCCC(=O)O | inactive | inactive | inactive |
| C[C@@H]1CN([C@H](C)CO)C(=O)Cc2cc(NC(=O)c3ccncc3)ccc2O[C@H]1CN(C)Cc1ccc(C(=O)O)cc1 | inactive | inactive | inactive |
| Cc1noc(C)c1NC(=O)N(C)C[C@H]1Oc2ccc(NC(=O)c3ccncc3)cc2C(=O)N([C@H](C)CO)C[C@@H]1C | inactive | active | inactive |
| CC(C)(C)[S@@](=O)N1Cc2cc(C(=O)NCc3ccncc3)nc(-c3cccc(-c4cccc(C#N)c4)c3)c2[C@H]1CCO | inactive | inactive | inactive |
| C[C@H]1CCCCO[C@@H](CN(C)C(=O)Nc2ccc(C(F)(F)F)cc2)[C@@H](C)CN([C@@H](C)CO)C(=O)c2cc(NC(=O)c3ccccc3)ccc2O1 | inactive | inactive | inactive |
| Cc1noc(C)c1NC(=O)Nc1ccc2c(c1)C(=O)N([C@H](C)CO)C[C@H](C)[C@@H](CN(C)S(C)(=O)=O)O2 | inactive | inactive | inactive |
| COc1ccc(CN(C)C[C@@H]2OCCCC[C@H](C)Oc3ccc(NC(=O)c4ccncc4)cc3C(=O)N([C@H](C)CO)C[C@@H]2C)cc1 | inactive | inactive | inactive |
| C[C@@H]1CCCCO[C@H](CN(C)C(=O)c2ccccc2)[C@H](C)CN([C@@H](C)CO)C(=O)c2cc(NC(=O)Nc3ccc(C(F)(F)F)cc3)ccc2O1 | inactive | active | inactive |
| COc1ccc(NC(=O)N(C)C[C@@H]2Oc3ccc(NC(=O)Nc4cccc5ccccc45)cc3C(=O)N([C@H](C)CO)C[C@@H]2C)cc1 | inactive | inactive | inactive |
| Cc1noc(C)c1S(=O)(=O)Nc1cccc2c1O[C@@H](CN(C)S(C)(=O)=O)[C@@H](C)CN([C@H](C)CO)C2=O | inactive | inactive | inactive |
| C[C@@H]1CN([C@H](C)CO)C(=O)c2c(c3ccccc3n2C)-c2ccccc2CO[C@@H]1CN(C)Cc1cccc(C(F)(F)F)c1 | inactive | inactive | inactive |
| C[C@H]1CN([C@@H](C)CO)C(=O)Cc2cc(NC(=O)CCCN(C)C)ccc2O[C@H]1CN(C)Cc1ccc(Oc2ccccc2)cc1 | inactive | inactive | inactive |
| C[C@H]1CCCCO[C@@H](CN(C)C(=O)Nc2ccccc2)[C@@H](C)CN([C@@H](C)CO)C(=O)c2cc(NC(=O)c3ccccc3)ccc2O1 | inactive | inactive | inactive |
| Cn1c(=O)c2c(ncn2C[C@@H](O)CNc2ccc(Br)cc2)n(C)c1=O | inactive | inactive | inactive |
| CCS(=O)(=O)N1C[C@]2(CCN(CC2)S(=O)(=O)c2ccccc2)c2c(n(c3cc(ccc23)OC)C)[C@@H]1CO | inactive | inactive | inactive |
| NC(=O)c1ccccc1O | inactive | inactive | inactive |
| C[C@H]1CN([C@@H](C)CO)S(=O)(=O)c2ccc(C#Cc3ccccc3F)cc2O[C@H]1CN(C)C(=O)c1ccc2c(c1)OCO2 | inactive | inactive | inactive |
| Clc1cccc(Cc2cn3cc(-c4ccccc4)nc3s2)c1 | inactive | inactive | inactive |
| Cc1ccc(S[C@]2(C(=O)NCc3ccccc3)CC(=O)N(Cc3ccccc3C(F)(F)F)[C@@H]2c2ccc(CO)cc2)cc1 | inactive | inactive | inactive |
| COCC(=O)N1C[C@H](C)[C@@H](OC)CN(C)C(=O)c2cc(NC(=O)c3ccc(F)cc3)ccc2OC[C@@H]1C | inactive | inactive | inactive |
| COc1ccc(-c2oc3c(CC=C(C)C)c(OC4OC(CO)C(O)C(O)C4O)cc(O)c3c(=O)c2OC2OC(C)C(O)C(O)C2O)cc1 (stereo not given) | inactive | inactive | inactive |

| Structure (SMILES) | cytotoxicity call (HSkMC) | cytotoxicity call (HepG2) | growth inhibition call (S. aureus RN4220) |
| --- | --- | --- | --- |
| C[C@@H]1CN([C@H](C)CO)C(=O)c2cccc(NC(=O)c3ccncc3)c2O[C@@H]1CN(C)S(=O)(=O)c1cccs1 | inactive | active | inactive |
| Cc1noc(C)c1NC(=O)Nc1ccc2c(c1)C(=O)N([C@@H](C)CO)C[C@@H](C)[C@@H](CN(C)CC1CC1)OCCCC[C@@H](C)O2 | inactive | inactive | inactive |
| C[C@@H]1CN([C@H](C)CO)C(=O)Cc2cc(NC(=O)Nc3ccc4c(c3)OCO4)ccc2O[C@@H]1CN(C)S(=O)(=O)c1cn(C)cn1 | inactive | inactive | inactive |
| [N-]=[N+]=NCc1ccccc1C[C@]1(C(=O)NCc2ccccc2)N=C(c2ccc(OCCCO)cc2)O[C@H]1c1ccccc1 | inactive | active | inactive |
| C[C@@H]1CCCCO[C@@H](CN(C)S(=O)(=O)c2cn(C)cn2)[C@H](C)CN([C@H](C)CO)C(=O)c2cc(NS(=O)(=O)c3ccccc3)ccc2O1 | inactive | inactive | inactive |
| Cc1noc(C)c1S(=O)(=O)N(C)C[C@H]1Oc2ccc(NS(C)(=O)=O)cc2C(=O)N([C@@H](C)CO)C[C@H]1C | inactive | inactive | inactive |
| COc1ccc([Si](C)(C)[C@@H]2[C@@H](CCn3cc([C@H](O)c4ccccc4)nn3)O[C@]3(C(=O)N(Cc4cccc(N5CCC5=O)c4)c4ccccc43)[C@H]2C)cc1 | inactive | inactive | inactive |
| Cc1ccc(S[C@]2(C(=O)NCC(F)(F)F)CC(=O)N(Cc3ccccc3C(F)(F)F)[C@@H]2c2ccc(CO)cc2)cc1 | inactive | inactive | inactive |
| Nc1ccc(-c2nn[nH]n2)cc1F | inactive | inactive | inactive |
| C[C@@H]1CN([C@H](C)CO)C(=O)c2ccccc2-c2ccccc2CO[C@@H]1CN(C)Cc1ccc(Oc2ccccc2)cc1 | inactive | inactive | inactive |
| CNC[C@@H]1OCCCC[C@H](C)Oc2ccc(NS(=O)(=O)c3cn(C)cn3)cc2C(=O)N([C@H](C)CO)C[C@@H]1C | inactive | inactive | inactive |
| CC(=O)N(C)[C@H]1C(=O)C(=O)c2ccccc2C1=O | inactive | inactive | inactive |
| Cc1cc(C)c2c(c1)NC(=O)C[C@H]2c1cccc(Cl)c1Cl | inactive | active | inactive |
| CCCNC(=O)Nc1ccc2c(c1)OC[C@@H](C)N(Cc1ccc(-c3ccccn3)cc1)C[C@@H](C)[C@@H](OC)CN(C)C2=O | inactive | inactive | inactive |
| Cc1noc(C)c1S(=O)(=O)Nc1ccc2c(c1)C(=O)N([C@H](C)CO)C[C@@H](C)[C@H](CN(C)C(=O)NC(C)C)O2 | inactive | inactive | inactive |
| Cc1ccc(S(=O)(=O)Nc2ccc3c(c2)CC(=O)N([C@@H](C)CO)C[C@H](C)[C@H](CN(C)C(=O)Nc2cccc4ccccc24)O3)cc1 | inactive | inactive | inactive |
| O=C(O)/C=C/c1ccc(O[C@@H]2O[C@H](CO)[C@@H](O)[C@H](O)[C@H]2O)cc1 | inactive | inactive | inactive |
| C[C@H](CO)N1C[C@H](C)[C@@H](CN(C)S(=O)(=O)c2ccc(F)cc2)Oc2ccc(NC(=O)Cc3ccccc3)cc2CC1=O | inactive | inactive | inactive |
| C[C@H](CO)N1C[C@H](C)[C@H](CN(C)S(C)(=O)=O)Oc2ncc(Br)cc2C1=O | inactive | inactive | inactive |
| CO[C@H]1CN(C)C(=O)c2ccc(NS(=O)(=O)c3cn(C)cn3)cc2OC[C@H](C)N(Cc2cccc(F)c2)C[C@H]1C | inactive | inactive | inactive |
| C[C@H](CO)N1C[C@H](C)[C@H](CN(C)Cc2ccc(C(=O)Nc3ccccc3N)cc2)Oc2ccc(NS(=O)(=O)c3ccc(Cl)cc3)cc2C1=O | inactive | inactive | inactive |
| C[C@@H]1CN([C@H](C)CO)C(=O)c2cc(NC(=O)Cc3ccccc3)ccc2O[C@@H](C)CCCCO[C@H]1CN(C)Cc1ccc(C(F)(F)F)cc1 | inactive | active | inactive |
| Cc1ccc(S(=O)(=O)Nc2ccc3c(c2)C(=O)N([C@@H](C)CO)C[C@@H](C)[C@@H](CN(C)C(=O)NC(C)C)O3)cc1 | inactive | inactive | inactive |
| Cc1noc(C)c1S(=O)(=O)Nc1ccc2c(c1)C(=O)N([C@H](C)CO)C[C@H](C)[C@@H](CN(C)CC1CC1)O2 | inactive | inactive | inactive |
| CN(C)C(=N)NC(=N)N.Cl | inactive | inactive | inactive |
| C[C@H](CO)N1C[C@H](C)[C@H](CN(C)S(=O)(=O)c2cn(C)cn2)OCCCC[C@H](C)Oc2ccc(NS(=O)(=O)c3cn(C)cn3)cc2C1=O | inactive | inactive | inactive |
| CO[C@@H]1CN(C)C(=O)c2ccc(NS(=O)(=O)c3cn(C)cn3)cc2OC[C@H](C)N(Cc2cccc(F)c2)C[C@H]1C | inactive | inactive | inactive |
